We go through 45 sequences from the supplement of paper PMC11417369.

The list shows a part of the results.

This experiment concerns PfSIP2 AP2 domain 1 (GST-tagged). Put plainly: gcPBM binding intensity (ln(normalized median fluorescence intensity)); higher = stronger DNA binding. In short, it runs like this:
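Binding of GST-tagged P. falciparum DNA-binding domains, expressed in E. coli and used at about 25 μg on average, was carried out for 1 h in 1× PBS containing 1% milk, 0.2 mg/ml BSA, 0.5% salmon testes DNA and 0.03% Triton X-100. The target was an Agilent 4 × 180k array of primer-extended double-stranded 36-bp intergenic genomic probes plus negative controls, read with Alexa488 anti-GST antibody at 488 nm. Binding intensity is the highest Masliner-normalised natural-log median intensity across replicate spots of either probe orientation.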
With “CATATTATTTAAACATGTACTCACATATAAATATAA [XGTACX_site6096]”, the “gcPBM binding intensity (ln)” value was 7.15.
Next, “TGTTTATAAATATAAAAAAATATATATATATATTAT [GTGCAC_negctrl_site247]”: 7.05.
As for “ATTTTATAATTTATATCACACACATATATATATAGT [CACACA_site7885]”, the figure is 7.16; as for “CAAAATTAATAAGTCACACACACATCTATAATATAT [CACACA_site6519]”, 6.78; as for “TTCTTTATTTTTTCTACACACATTAGATATTCAAAG [CACACA_site7624]”, 7.53.
As for “ACCATAACATGAATTACAGGAATTGAAAATGTTCCA [CACACA_negctrl_site649]”, the figure is 6.8; as for “TATATATATATATTCACACATAAGATGAATAAAGTG [CACACA_site4225]”, 9.21.
For “GGTTACATTTTATTTTGTACATAAAAATTTTTATTT [XGTACX_site218]”, the “gcPBM binding intensity (ln)” value came to 7.43.
As for GTATTATATATAAAAGTGCATATTTTTTTCCCTTAC, the figure is 8.93; as for “AAATAATTAAAAAAAAGTACACATGTGACTACATAT [XGTACX_site8767]”, 7.09.
Next, “TCATCATATTATATATGTACATATATAATAATTTAT [XGTACX_site1625]”: 7.31; “ATTGTATCTGTATATGCACACAATATCTGTACTTCT [CACACA_site5445]”: 7.04.
Next, “AAATAAAGCACACCGACACACACATATATATATATA [CACACA_site8256]”: 9.21; “TATATATATGTATACACACATACAAATATGTAAAAA [CACACA_site3720]”: 7.17.
“CGAAATCATATGTACACACACATATATATATATATA [CACACA_site2151]”: the “gcPBM binding intensity (ln)” value came out at 9.32.
Next, “TTTCAATACTGAAACTGTACTTGTTTTACTTCTATT [XGTACX_site5924]”: 6.71; “TTATAATTTTTTTTTGCATGTGGGTTTTTTTTTGTT [TGCATGCA_site968]”: 6.83; “ATAAAGAAACATATATGTACTTATATATATATATAT [XGTACX_site5625]”: 9.14.
As for “TATTATTTATTATATGCACACATCGAACTATTATTT [CACACA_site2544]”, the “gcPBM binding intensity (ln)” value stood at 8.
In the case of “TATTCGAAAGAATAGGCATGCAAACATATCTTATTA [TGCATGCA_site147]”, the “gcPBM binding intensity (ln)” value was determined as 6.57.
Next, “TTCTATATTATATATGCATGTGTTATTCTTATTTTC [TGCATGCA_site92]”: 7.15; “AAACATATAAATCACGGTACACATTATTGAAAGTGT [XGTACX_site2966]”: 7.06.
As for “ATATAATATTAGTGCACACACAAAAATGTACTAAAC [CACACA_site632]”, the “gcPBM binding intensity (ln)” value worked out at 10.9.
Next, “ATATATATTATATGCACACTTATATTTCATTAGATT [CACACA_site2599]”: 8.8; “TTTTATTAATATTGCATGCACACTATATAATAATTG [CACACA_site1049]”: 8.63; “CGGAAAAATTAAAGCACACAAAAAAAAATAAAAAAA [CACACA_site1133]”: 6.94.
With “AATATTTCTTTAATTTGTACATATAAGGGAAAATAA [XGTACX_site6221]”, the “gcPBM binding intensity (ln)” value is 7.07.
Next, “TTTTTATTATTTTAAAGTACTCTTTAGTAATTCCCT [XGTACX_site5863]”: 6.78.
As for “CACAGATAAATTAACACACACACACCGATATATATA [CACACA_site6049]”, the figure is 7.29.
Next, “AAAAAACATACATACACACACATAAATATTTATATT [CACACA_site7300]”: 7.01; “ATATATATTTTAATAACACACATATATTATATTATA [CACACA_site4387]”: 7.06.
Regarding “CTTAGGTGTTCATAGAGTACAAATAAAAAAATAAGA [XGTACX_site2294]”, the “gcPBM binding intensity (ln)” value was 7.22.
Next, “TCATTCTAAATATAAACACACATAAATAAATACATT [CACACA_site5788]”: 6.86; “GGTGGTGGTGGGTGGGTGCTTCTATTATTATATTAT [GTGCAC_site9391]”: 9.59; GATGTTTCTATTTTAGTGCATTTTAAATAAATAAAT: 9.4.
As to “ACGTTACATACATATACACACACATATATATATATA [CACACA_site8203]”, the “gcPBM binding intensity (ln)” value came to 9.05.
Consider “TATATATATTATTATGCATGTAATAAAACAAATAAT [TGCATGCA_site625]”, for which the “gcPBM binding intensity (ln)” value was 7.34.
Next, “ATTTCTTCTTTTTTTGTGAAACTGGAATATATATAT [XGTACX_negctrl_site527]”: 8.21; “TATTAAAAAATTATATGTACACATTTGTTATATACA [XGTACX_site2232]”: 7.28.
As for “ATAAAAAAATAAATAACACACAAAATTACACGAAAA [CACACA_site3620]”, the figure is 7.06; as for “AATTAAAGGAATTACAACTTTGCAAGCGCAACATAA [CACACA_negctrl_site1411]”, 6.81.
As for “TTCTTTATATATGTTCGTACATATTATTATAATACA [XGTACX_site1549]”, the “gcPBM binding intensity (ln)” value came out at 7.25.
Next, “TATGTCCATATTTCCACACACATATTATTTTTATAT [CACACA_site3798]”: 7.26.
Take “AAATATATTTTTAATAGTACAATATGAAAATTTCAT [XGTACX_site2562]”: the “gcPBM binding intensity (ln)” value worked out at 6.98.
Next, “AAAAAAAAGGAAATAACACACATGTATATATTTATA [CACACA_site1606]”: 6.8.
